Source: paper PMC5050407
These are yes or no findings as the source states them, for the method shown. For some of these results: In cells and extracts the contact can be indirect. Some entries that bind do so weakly or less than the wild type. Sequences can lack the tags named with a protein.

Protein sequences, listed by entry. Tags and fused reporters are not part of them.
UniProt Q60960: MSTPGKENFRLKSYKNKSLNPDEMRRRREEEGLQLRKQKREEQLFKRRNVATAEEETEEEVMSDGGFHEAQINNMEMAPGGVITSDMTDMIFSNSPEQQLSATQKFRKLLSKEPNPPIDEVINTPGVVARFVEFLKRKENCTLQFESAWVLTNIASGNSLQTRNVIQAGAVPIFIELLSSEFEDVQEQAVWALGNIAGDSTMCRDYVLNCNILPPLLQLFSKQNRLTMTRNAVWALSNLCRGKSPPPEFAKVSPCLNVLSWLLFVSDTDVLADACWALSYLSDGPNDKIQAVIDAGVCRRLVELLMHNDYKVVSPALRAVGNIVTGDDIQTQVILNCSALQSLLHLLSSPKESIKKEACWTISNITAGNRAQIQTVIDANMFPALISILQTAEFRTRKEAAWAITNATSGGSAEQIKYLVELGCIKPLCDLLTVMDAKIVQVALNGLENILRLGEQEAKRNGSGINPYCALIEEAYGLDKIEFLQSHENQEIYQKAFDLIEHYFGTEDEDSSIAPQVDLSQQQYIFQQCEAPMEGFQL
UniProt O35343: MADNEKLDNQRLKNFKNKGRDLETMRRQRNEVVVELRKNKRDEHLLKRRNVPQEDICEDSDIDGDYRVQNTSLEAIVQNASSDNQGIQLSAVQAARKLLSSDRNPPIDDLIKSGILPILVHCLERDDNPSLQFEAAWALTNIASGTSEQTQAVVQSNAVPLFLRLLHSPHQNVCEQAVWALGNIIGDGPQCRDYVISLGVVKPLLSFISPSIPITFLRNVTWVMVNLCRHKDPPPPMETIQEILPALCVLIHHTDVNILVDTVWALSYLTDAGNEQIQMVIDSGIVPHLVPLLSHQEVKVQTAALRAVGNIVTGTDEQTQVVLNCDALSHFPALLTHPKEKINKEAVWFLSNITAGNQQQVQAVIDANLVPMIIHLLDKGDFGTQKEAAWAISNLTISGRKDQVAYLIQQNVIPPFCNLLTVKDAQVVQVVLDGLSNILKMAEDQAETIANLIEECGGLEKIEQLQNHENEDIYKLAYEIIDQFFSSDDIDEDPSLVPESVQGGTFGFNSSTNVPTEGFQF

T1: TALDO1L, 3×FLAG- or 3×HA-tagged (transaldolase 1 long isoform) (not stated (human or mouse cDNA cloned)) (UniProt Q93092)
T1 sequence: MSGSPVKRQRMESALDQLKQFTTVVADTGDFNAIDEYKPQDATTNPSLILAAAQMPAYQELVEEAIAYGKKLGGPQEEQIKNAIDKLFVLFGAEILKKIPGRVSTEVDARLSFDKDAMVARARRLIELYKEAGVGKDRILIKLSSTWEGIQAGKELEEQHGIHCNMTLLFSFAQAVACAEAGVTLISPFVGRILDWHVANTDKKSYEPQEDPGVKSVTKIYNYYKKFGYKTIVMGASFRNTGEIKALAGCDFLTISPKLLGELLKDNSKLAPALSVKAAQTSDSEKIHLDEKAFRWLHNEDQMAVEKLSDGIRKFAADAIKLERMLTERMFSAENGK


Assays:
[1] = target: GST-mouse importin α1 (KPNA1) (mouse) (UniProt Q60960); assay: pull-down; 50 pmol GST-importin α immobilised on Glutathione Sepharose 4B, 50 pmol test protein; 20 mM HEPES pH 7.3, 150 mM NaCl, 0.5% NP-40, 1 mM DTT, 1% BSA; 4 °C, 2 h; western blot with anti-GFP; both purified
[2] = target: GST-mouse importin α4 (KPNA4) (mouse) (UniProt O35343); assay: as above
[3] = target: T1, TALDO1L, 3×FLAG- or 3×HA-tagged (transaldolase 1 long isoform) (not stated (human or mouse cDNA cloned)); assay: co-IP; 3×FLAG- and 3×HA-tagged TALDO1 isoforms co-expressed; lysates immunoprecipitated with anti-FLAG antibody, blotted with anti-HA and anti-FLAG
[4] = target: TALDO1S, 3×FLAG- or 3×HA-tagged (transaldolase 1 short isoform) (not stated (human or mouse cDNA cloned)) (UniProt Q93092); assay: as above

binding [1]	binding [2]	binding [3]	binding [4]	Binder
binds	binds	–	–	TALDO1L-GFP (transaldolase 1 long isoform fused to GFP) (protein, UniProt Q93092-1 1-337) MSGSPVKRQRMESALDQLKQFTTVVADTGDFNAIDEYKPQDATTNPSLILAAAQMPAYQELVEEAIAYGKKLGGPQEEQIKNAIDKLFVLFGAEILKKIPGRVSTEVDARLSFDKDAMVARARRLIELYKEAGVGKDRILIKLSSTWEGIQAGKELEEQHGIHCNMTLLFSFAQAVACAEAGVTLISPFVGRILDWHVANTDKKSYEPQEDPGVKSVTKIYNYYKKFGYKTIVMGASFRNTGEIKALAGCDFLTISPKLLGELLKDNSKLAPALSVKAAQTSDSEKIHLDEKAFRWLHNEDQMAVEKLSDGIRKFAADAIKLERMLTERMFSAENGK
–	–	binds	–	TALDO1L, 3×FLAG- or 3×HA-tagged (transaldolase 1 long isoform) (protein, UniProt Q93092-1 1-337) MSGSPVKRQRMESALDQLKQFTTVVADTGDFNAIDEYKPQDATTNPSLILAAAQMPAYQELVEEAIAYGKKLGGPQEEQIKNAIDKLFVLFGAEILKKIPGRVSTEVDARLSFDKDAMVARARRLIELYKEAGVGKDRILIKLSSTWEGIQAGKELEEQHGIHCNMTLLFSFAQAVACAEAGVTLISPFVGRILDWHVANTDKKSYEPQEDPGVKSVTKIYNYYKKFGYKTIVMGASFRNTGEIKALAGCDFLTISPKLLGELLKDNSKLAPALSVKAAQTSDSEKIHLDEKAFRWLHNEDQMAVEKLSDGIRKFAADAIKLERMLTERMFSAENGK
–	–	binds	binds	TALDO1S, 3×FLAG- or 3×HA-tagged (transaldolase 1 short isoform) (protein, UniProt Q93092-1 11-337) MESALDQLKQFTTVVADTGDFNAIDEYKPQDATTNPSLILAAAQMPAYQELVEEAIAYGKKLGGPQEEQIKNAIDKLFVLFGAEILKKIPGRVSTEVDARLSFDKDAMVARARRLIELYKEAGVGKDRILIKLSSTWEGIQAGKELEEQHGIHCNMTLLFSFAQAVACAEAGVTLISPFVGRILDWHVANTDKKSYEPQEDPGVKSVTKIYNYYKKFGYKTIVMGASFRNTGEIKALAGCDFLTISPKLLGELLKDNSKLAPALSVKAAQTSDSEKIHLDEKAFRWLHNEDQMAVEKLSDGIRKFAADAIKLERMLTERMFSAENGK
no binding (tested: 50 pmol each)	no binding (tested: 50 pmol each)	–	–	TALDO1S-GFP (transaldolase 1 short isoform fused to GFP) (protein, UniProt Q93092-1 11-337) MESALDQLKQFTTVVADTGDFNAIDEYKPQDATTNPSLILAAAQMPAYQELVEEAIAYGKKLGGPQEEQIKNAIDKLFVLFGAEILKKIPGRVSTEVDARLSFDKDAMVARARRLIELYKEAGVGKDRILIKLSSTWEGIQAGKELEEQHGIHCNMTLLFSFAQAVACAEAGVTLISPFVGRILDWHVANTDKKSYEPQEDPGVKSVTKIYNYYKKFGYKTIVMGASFRNTGEIKALAGCDFLTISPKLLGELLKDNSKLAPALSVKAAQTSDSEKIHLDEKAFRWLHNEDQMAVEKLSDGIRKFAADAIKLERMLTERMFSAENGK
